{
  "source": "ChEMBL document CHEMBL4888484",
  "about": "“Replenishing the malaria drug discovery pipeline: Screening and hit evaluation of the MMV Hit Generation Library 1 (HGL1) against asexual blood stage Plasmodium falciparum ,using a nano luciferase reporter read-out” (2022)",
  "note": "Screen size: about 150,000 compounds; about 540 (0.36%) showed an effect of 50% or more. This is one part of the list.",
  "data": [
    {"tested_on": "Plasmodium falciparum", "assay": "Primary screen in NF54 nanoGlo assay, in single point, at 2uM, 72h; a lower Z score goes with more inhibition", "format": "functional, Erythrocyte", "details": "timepoint 72 hour", "units": {"% Inhibition": "%"}, "values": [
      {"smiles": "C[C@]1(C(=O)NCC(=O)N2CCCC2)CC1(Cl)Cl", "% Inhibition": -8, "Z score": 1.09},
      {"smiles": "Cc1ccc(NC(=O)Cn2nc3c(N4CCN(c5ccccc5)CC4)nccn3c2=O)cc1F", "% Inhibition": -16, "Z score": 1.56},
      {"smiles": "Cc1ccc(C)c(C(=O)Nc2cnc(-n3nc(C)cc3C)nc2)c1", "% Inhibition": 5, "Z score": -0.75},
      {"smiles": "CCn1nc(CN2CCC[C@H](NC(=O)c3cc(C)on3)C2)c2c1CCOC2", "% Inhibition": 2, "Z score": -0.27},
      {"smiles": "COc1ccc(NC(=O)C(C)(C)N(Cc2ccco2)C(=O)CC2C(c3c(C)[nH]c4ccccc34)C2(C)C)cc1", "note": "(stereo unspecified)", "% Inhibition": -36, "Z score": 4.26},
      {"smiles": "CCc1cc(N2CCN(C(=O)c3ccc4[nH]nnc4c3)CC2)ncn1", "% Inhibition": 10, "Z score": -1.39},
      {"smiles": "CC(C)CC(C)(C)C(=O)N1CCC([C@H]2CCNC2)CC1", "% Inhibition": 5, "Z score": -0.81},
      {"smiles": "COC(=O)c1cn(-c2nc(C)c3c(n2)CCC3)nn1", "% Inhibition": -6, "Z score": 0.88},
      {"smiles": "CCC(NC(=O)c1cccc(F)c1O)[C@H]1C[C@H](O)C1", "note": "(stereo partly specified)", "% Inhibition": -13, "Z score": 1.28},
      {"smiles": "CN(Cc1ccccc1)[C@@H]1COC2(C1)CN(C(=O)Cc1cccnc1)C2", "% Inhibition": -12, "Z score": 1.84},
      {"smiles": "CCNC(=O)NC(=O)[C@H](C)Nc1ccc(C)c(OCC(F)F)c1", "% Inhibition": -11, "Z score": 1.85},
      {"smiles": "CC[C@H]1C(=O)NCCN1CCCS(=O)(=O)C(C)C", "% Inhibition": -2, "Z score": 0.41},
      {"smiles": "Cc1cccc(Nc2nc(-c3ccco3)c(C#N)c(=O)[nH]2)c1", "% Inhibition": -47, "Z score": 5.51},
      {"smiles": "CCc1c(-c2nc(C(C)(C)C)no2)cnn1C(CC)CC", "% Inhibition": -2, "Z score": 0.17},
      {"smiles": "Cc1cccc(N(C)C(=O)c2ncoc2C(C)C)n1", "% Inhibition": -7, "Z score": 1.04},
      {"smiles": "Cc1cc(=O)cc(C(=O)N2CCC(Oc3cccc(Cl)c3)CC2)n1C", "% Inhibition": -5, "Z score": 1.02},
      {"smiles": "COCCN1CCN(Cc2cc(-c3ccccc3)[nH]n2)CC1=O", "% Inhibition": -10, "Z score": 1.29},
      {"smiles": "CC(C)(C)c1nnc(CN2CCCc3ccccc32)o1", "% Inhibition": 15, "Z score": -1.94},
      {"smiles": "O=C(NCCOc1ccc2c(c1)OCO2)[C@@H]1CCCN1Cc1ccc(F)cc1", "% Inhibition": 2, "Z score": -0.45},
      {"smiles": "COC[C@H]1CCCN1S(=O)(=O)NCCC(C)(C)OC", "% Inhibition": -9, "Z score": 1.21},
      {"smiles": "CCN1CCCN(C(=O)c2ccc3c(c2)OCCCO3)CC1", "% Inhibition": -11, "Z score": 1.38},
      {"smiles": "CS(=O)(=O)c1ccc(C(=O)N2CC3CC3C2)cc1", "note": "(stereo unspecified)", "% Inhibition": -16, "Z score": 2.16},
      {"smiles": "O=C(Nc1cc(S(=O)(=O)N2CCOCC2)ccc1N1CCOCC1)c1ccc2ncsc2c1", "% Inhibition": -5, "Z score": 0.83},
      {"smiles": "O[C@@H]1Cc2ccccc2[C@@H]1n1cnc(-c2ccccc2)c1-c1ccncc1", "% Inhibition": 8, "Z score": -1.13},
      {"smiles": "O=C(c1ncoc1C1CC1)N1CC[C@@]2(CCCN(Cc3ccc(F)c(F)c3)C2)C1", "% Inhibition": 4, "Z score": -0.72},
      {"smiles": "CC(C)c1nnc([C@H]2CN(C(=O)c3cccc(Cl)c3)CC23CCOCC3)o1", "% Inhibition": -4, "Z score": 0.82},
      {"smiles": "N#CCN1C(=O)[C@@H]2CCCN2c2ccc(S(=O)(=O)N3CCOCC3)cc21", "% Inhibition": -3, "Z score": 0.44},
      {"smiles": "O=C(Nc1ncc(Cc2ccc(F)cc2)s1)N1CCC2CCC(C1)[S+]2[O-]", "note": "(stereo unspecified)", "% Inhibition": 13, "Z score": -1.54},
      {"smiles": "Cc1cc([C@@H](O)CNC(=O)NCc2ccccc2)c(C)o1", "% Inhibition": -2, "Z score": 0.23},
      {"smiles": "Cn1cc(C(=O)N[C@@H]2COCC[C@@H]2OCc2cscn2)cn1", "% Inhibition": -14, "Z score": 2.29},
      {"smiles": "COc1ccc([C@H]2C(=O)N(C3CCCCCC3)CC(=O)N2Cc2ccccc2)cc1", "% Inhibition": -9, "Z score": 1.11},
      {"smiles": "COCCc1noc(C2(c3ccc(F)cc3)CC2)n1", "% Inhibition": -8, "Z score": 0.79},
      {"smiles": "Cc1ccsc1[C@@H](O)CNC(=O)COc1ccccc1", "% Inhibition": -15, "Z score": 2.65},
      {"smiles": "Clc1cnc(NCc2cnn3c2CCCC3)nc1", "% Inhibition": -11, "Z score": 1.35},
      {"smiles": "O=S(=O)(Nc1noc(-c2ccsc2)n1)c1cccs1", "% Inhibition": -10, "Z score": 1.33},
      {"smiles": "O=C(NCc1cccnc1)[C@@H]1COC2(CCN(C(=O)c3ccc(F)cc3)CC2)N1C(=O)c1ccc(F)cc1", "% Inhibition": 6, "Z score": -0.97},
      {"smiles": "CCN(CC)CCn1c2ccccc2n2cc(-c3ccc(Br)cc3)nc12", "% Inhibition": 31, "Z score": -8.72},
      {"smiles": "CC1(C)C[C@@H]1C(=O)NC1CCCCCCC1", "% Inhibition": 0, "Z score": 0},
      {"smiles": "COc1cc(-c2ccno2)ccc1S(=O)(=O)Nc1cccc(F)c1", "% Inhibition": -10, "Z score": 1.67},
      {"smiles": "Cc1nc(NC[C@H]2CCCN(C(C)C)C2)cc(-c2cccnc2)n1", "% Inhibition": -3, "Z score": 0.56},
      {"smiles": "Cc1ccc(-c2nn(Cn3nc(C)c(Cl)c3C)c(-c3ccc(C)cc3)c2Cl)cc1", "% Inhibition": 25, "Z score": -2.86},
      {"smiles": "CO[C@H]1C[C@H]2CN(C(=O)Nc3cccc(C(F)(F)F)c3)CC(=O)N2C1", "% Inhibition": -5, "Z score": 0.72},
      {"smiles": "Cc1nc2nc(-c3cccs3)nn2c(C)c1CC(=O)N1CCOCC1", "% Inhibition": 5, "Z score": -0.6},
      {"smiles": "COc1ccc(CCc2n[nH]c(C)c2NC(=O)c2ccccc2F)cc1", "% Inhibition": 0, "Z score": 0},
      {"smiles": "COc1cc(NC(=O)c2cc(C)n3nc(C)cc3n2)cc(OC)c1OC", "% Inhibition": 10, "Z score": -1.54},
      {"smiles": "Cc1ccc(CNC2C3CCOC3C23CCCC3)cn1", "note": "(stereo unspecified)", "% Inhibition": 6, "Z score": -0.57},
      {"smiles": "CCc1nc2c(s1)[C@@H](NCc1cc(C)on1)CCC2", "% Inhibition": -3, "Z score": 0.37},
      {"smiles": "CCc1c(C)cc(C(=O)N[C@H]2CCOC[C@@H]2O)c(=O)n1C", "% Inhibition": -8, "Z score": 1.49},
      {"smiles": "O=C(C[C@H](c1cccc(C(F)(F)F)c1)c1cn(Cc2ccc(F)cc2)c2ccccc12)NCc1ccco1", "% Inhibition": -10, "Z score": 1.16},
      {"smiles": "Cn1ccnc1[C@H]1CCN(C(=O)NCC2CCN(Cc3ccncc3)CC2)C1", "% Inhibition": -7, "Z score": 0.76},
      {"smiles": "CN(C)C(=O)c1cncc(N(C)CCCN2CCOCC2)n1", "% Inhibition": -1, "Z score": 0.18},
      {"smiles": "CCS(=O)(=O)NC[C@H](C)NCc1csc(N)n1", "% Inhibition": -3, "Z score": 0.36},
      {"smiles": "CCc1nc(C)c(C(=O)NC(C)(C)c2nnc(N)s2)o1", "% Inhibition": -19, "Z score": 1.79}
    ]}
  ]
}
